Among all 310,000 compounds or so, about 2,200 (0.71%) showed an effect of 50% or more. Effects have a minus sign here. The list shows a part of the results.
These molecules were tested against human ether-à-go-go-related gene (hERG) potassium channel (human, UniProt Q12809) (assay: primary screen, population patch clamp on CHO cells stably expressing hERG).
Chain of human ether-à-go-go-related gene (hERG) potassium channel (Q12809 whole entry, looked up): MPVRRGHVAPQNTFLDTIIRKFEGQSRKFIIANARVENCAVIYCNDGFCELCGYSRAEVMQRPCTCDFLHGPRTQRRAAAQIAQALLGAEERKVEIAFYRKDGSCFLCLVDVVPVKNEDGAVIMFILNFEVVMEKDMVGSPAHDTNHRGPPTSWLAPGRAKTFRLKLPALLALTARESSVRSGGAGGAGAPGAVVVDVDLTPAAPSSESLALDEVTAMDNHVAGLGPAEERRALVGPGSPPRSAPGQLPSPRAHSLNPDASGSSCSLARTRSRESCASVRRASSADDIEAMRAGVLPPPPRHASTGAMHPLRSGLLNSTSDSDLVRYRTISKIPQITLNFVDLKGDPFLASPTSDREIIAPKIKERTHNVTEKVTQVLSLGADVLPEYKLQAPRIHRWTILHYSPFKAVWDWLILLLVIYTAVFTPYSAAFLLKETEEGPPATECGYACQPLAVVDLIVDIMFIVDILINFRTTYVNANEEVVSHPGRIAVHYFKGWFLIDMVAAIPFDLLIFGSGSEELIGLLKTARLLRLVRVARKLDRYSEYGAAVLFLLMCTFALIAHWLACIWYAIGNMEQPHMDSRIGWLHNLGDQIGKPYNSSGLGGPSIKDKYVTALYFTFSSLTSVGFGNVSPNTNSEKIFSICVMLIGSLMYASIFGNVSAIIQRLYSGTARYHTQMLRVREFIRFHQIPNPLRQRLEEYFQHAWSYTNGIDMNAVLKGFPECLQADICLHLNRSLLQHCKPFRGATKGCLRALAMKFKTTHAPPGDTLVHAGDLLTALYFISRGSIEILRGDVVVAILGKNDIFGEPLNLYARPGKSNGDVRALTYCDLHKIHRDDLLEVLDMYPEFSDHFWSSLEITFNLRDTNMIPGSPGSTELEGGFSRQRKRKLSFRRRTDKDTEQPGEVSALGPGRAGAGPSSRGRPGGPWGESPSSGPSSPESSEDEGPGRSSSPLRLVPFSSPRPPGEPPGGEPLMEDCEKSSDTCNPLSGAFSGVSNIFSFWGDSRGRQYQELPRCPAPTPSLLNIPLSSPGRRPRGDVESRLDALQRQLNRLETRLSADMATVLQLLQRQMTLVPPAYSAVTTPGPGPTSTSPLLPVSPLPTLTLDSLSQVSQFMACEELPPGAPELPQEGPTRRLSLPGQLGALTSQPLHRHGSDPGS
Cc1ccc(S(=O)(=O)N(Cc2cc3ccccc3[nH]c2=O)c2cccc(C)c2)cc1 was tested, and the “hERG current change (%, negative = inhibition) at 1uM” value was 6.03%. Cc1ccc2cc(CCNC(=O)CCCc3ccccc3)c(=O)[nH]c2c1C was tested, and the “hERG current change (%, negative = inhibition) at 1uM” value was 11.6%. With O=C(c1ccc(F)c(S(=O)(=O)N2CCOCC2)c1)N1CCc2ccccc21 the “hERG current change (%, negative = inhibition) at 1uM” value was 8.33%. O=C(CS(=O)(=O)c1ccc2ccccc2c1)Nc1ccccc1Cl was tested, and the “hERG current change (%, negative = inhibition) at 1uM” value was 12.4%. In the case of NS(=O)(=O)c1ccc(CNS(=O)(=O)c2ccc(Cl)nc2)cc1, the “hERG current change (%, negative = inhibition) at 1uM” value is reported as 4.83%. For CC(=O)Nc1ccc(OC(=O)c2cccnc2)cc1, the “hERG current change (%, negative = inhibition) at 1uM” value was 10.4%. For COc1ccc(CCC(=O)N/N=C/c2ccc3c(c2)OCO3)cc1, the “hERG current change (%, negative = inhibition) at 1uM” value was 10.6%. With CCn1nc(NC(C)=O)c2cc3ccc(C)cc3nc21 the “hERG current change (%, negative = inhibition) at 1uM” value was 18.6%. With COc1ccccc1-c1nc(N)n[nH]1 the “hERG current change (%, negative = inhibition) at 1uM” value was 7.08%. With O=C(COC(=O)Cc1ccccc1)Nc1nnc(-c2ccccc2)o1 the “hERG current change (%, negative = inhibition) at 1uM” value was -1.14%. CN(C)C(CNC(=O)c1cc(S(=O)(=O)N(C)Cc2ccccc2)ccc1Cl)c1ccco1 (centres unmarked) was tested, and the “hERG current change (%, negative = inhibition) at 1uM” value was 5.45%. For O=C(COC(=O)C(c1ccccc1)c1ccccc1)NCc1ccco1, the “hERG current change (%, negative = inhibition) at 1uM” value was 6.22%. CCN1CCN(CC(=O)Nc2ccc(C(C)=O)cc2)CC1.Cl was tested, and the “hERG current change (%, negative = inhibition) at 1uM” value was 7.68%. CN1CCC2(CC1)N=C(c1ccc(F)cc1)C(=S)N2C(=O)c1ccccc1 was tested, and the “hERG current change (%, negative = inhibition) at 1uM” value was 7.76%. COc1cccc(NC(=O)COC(=O)c2c3c(nc4ccccc24)CCC(C)C3)c1 (centres unmarked) was tested, and the “hERG current change (%, negative = inhibition) at 1uM” value was -14.7%. In the case of CCOc1ccc(OCc2ccc(C(=O)OCc3ccccn3)o2)cc1, the “hERG current change (%, negative = inhibition) at 1uM” value is reported as 4.26%. CSc1ccc(C(=O)N2CCC(n3nccc3NC(=O)C3CC3)CC2)cc1 was tested, and the “hERG current change (%, negative = inhibition) at 1uM” value was -24.3%. In the case of CCN1CCN(C(=O)c2ccc(-c3nc4ccccc4s3)s2)CC1, the “hERG current change (%, negative = inhibition) at 1uM” value is reported as -6.33%. For Cc1cc(C)n(C(=O)c2ccc(C)c(S(=O)(=O)N3CCCCC3)c2)n1, the “hERG current change (%, negative = inhibition) at 1uM” value was 9.6%. Cc1cccc(C)c1NC(=O)COC(=O)CNC(=O)C1CCCCC1 was tested, and the “hERG current change (%, negative = inhibition) at 1uM” value was 12.2%. In the case of CC(=O)c1sc(NC(=O)Cc2c(F)cccc2Cl)nc1C, the “hERG current change (%, negative = inhibition) at 1uM” value is reported as 7.88%. In the case of CN1CCN(CC(=O)Nc2cccc(S(=O)(=O)N(C)c3ccccc3)c2)CC1, the “hERG current change (%, negative = inhibition) at 1uM” value is reported as 1.01%. CCOC(=O)c1ccc2[nH]cc(C(C)=O)c(=O)c2c1 was tested, and the “hERG current change (%, negative = inhibition) at 1uM” value was 3.52%. C/C(=N\NC(=O)c1cccc(S(=O)(=O)N2CCCC2)c1)c1ccc(OCC(=O)N(C)C)cc1 was tested, and the “hERG current change (%, negative = inhibition) at 1uM” value was 0.865%. With COc1cccc(N2CCN(C(=O)c3cccc(N4C(=O)NC5CC4(C)Oc4c(OC)cccc45)c3)CC2)c1 (centres unmarked) the “hERG current change (%, negative = inhibition) at 1uM” value was 14.7%. With CC(=O)Oc1ccc2c3c(c(=O)oc2c1C)CCCC3 the “hERG current change (%, negative = inhibition) at 1uM” value was 15.5%. COc1ccc(N2C(=O)CC(N3CCC(c4nc5ccccc5[nH]4)CC3)C2=O)cc1 (centres unmarked) was tested, and the “hERG current change (%, negative = inhibition) at 1uM” value was -2.22%. With CC1=C(C)CC(C(=O)NCc2ccccn2)C(C(=O)O)C1 (centres unmarked) the “hERG current change (%, negative = inhibition) at 1uM” value was 4.67%. With CCCCn1c(N)c(NCc2ccccc2)c(=O)[nH]c1=O the “hERG current change (%, negative = inhibition) at 1uM” value was 14.7%. With CCCCn1c(N)c(N(CC(C)C)C(=O)c2ccc(S(=O)(=O)N3CCC(C)CC3)cc2)c(=O)[nH]c1=O the “hERG current change (%, negative = inhibition) at 1uM” value was 3.98%. With Cc1cc(NC(=O)CN2CCN(Cc3ccccc3)CC2)nc2c1c(=O)oc1ccccc12 the “hERG current change (%, negative = inhibition) at 1uM” value was 2%. For CCOc1ccc(C(C(=O)NC(C)(C)C)N(CCOC)C(=O)CCC(=O)Nc2nccs2)cc1 (centres unmarked), the “hERG current change (%, negative = inhibition) at 1uM” value was 17.2%. With CCOc1cc(Cl)c(NC(C)=O)cc1OCC the “hERG current change (%, negative = inhibition) at 1uM” value was 10.6%. For CN(C)CCOC(=O)C12CC3CC(C1)CC(C(=O)OCCN(C)C)(C3)C2.Cl, the “hERG current change (%, negative = inhibition) at 1uM” value was 13.2%. With COc1cccc(/C=C2/SC(=S)N(CC(=O)NC3C=CS(=O)(=O)C3)C2=O)c1 (centres unmarked) the “hERG current change (%, negative = inhibition) at 1uM” value was 28.9%. For CC1Cc2nc(SCC(=O)Nc3ccc4c(c3)OCCO4)n(C)c(=O)c2S1 (centres unmarked), the “hERG current change (%, negative = inhibition) at 1uM” value was 12.4%. For COc1ccc(F)cc1S(=O)(=O)NCc1ccccc1, the “hERG current change (%, negative = inhibition) at 1uM” value was 5.45%. In the case of CN(C)CCCNC(=O)C(=O)NCC1OCCN1S(=O)(=O)c1cc(F)ccc1F (centres unmarked), the “hERG current change (%, negative = inhibition) at 1uM” value is reported as 0.429%. CCn1c(SCC(=O)Nc2nnc(C)s2)nnc1-c1ccncc1 was tested, and the “hERG current change (%, negative = inhibition) at 1uM” value was 8.28%. For Cc1ccc2cc(CN(CC3CCCO3)C(=O)Nc3ccccc3F)c3nnnn3c2c1 (centres unmarked), the “hERG current change (%, negative = inhibition) at 1uM” value was 2.93%. O=C(CCCC(=O)OCC(=O)c1cccs1)Nc1ccc(Oc2ccccc2)cc1 was tested, and the “hERG current change (%, negative = inhibition) at 1uM” value was 3.88%. With CC(O)c1nc2ccc(Cc3ccc4nc(C(C)O)[nH]c4c3)cc2[nH]1 (centres unmarked) the “hERG current change (%, negative = inhibition) at 1uM” value was -2.06%. In the case of COc1ccc(NC(=O)CCCC(=O)O)cc1Cl, the “hERG current change (%, negative = inhibition) at 1uM” value is reported as 7.49%. With O=C(O)CC(C(=O)O)c1ccc(OCCCCOc2ccc(C(CC(=O)O)C(=O)O)cc2)cc1 (centres unmarked) the “hERG current change (%, negative = inhibition) at 1uM” value was 14.7%.

Source: paper PMC4336329 (PLoS ONE, 2015)
